Growth of fresh clinical P. falciparum isolates by hypoxanthine uptake over 42 h; for most isolates 1.6-1,647 nM mefloquine, 0.044-87 nM artesunate, 10-10,256 nM chloroquine, 2.4-236 nM lumefantrine. EC50, lower = more sensitive; slope from the same fit, higher = steeper. No active / inactive call. Fits with a coefficient of variation above 100% are not listed here; 15-28% of fits exceed 15%. Isolates are numbered anew.
Key:
[1] = compound: T1, OC(c1cc(C(F)(F)F)nc2c(C(F)(F)F)cccc12)C1CCCCN1 [mefloquine]
Description: (§1)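 Hypoxanthine uptake by fresh isolates, duplicate serial dilutions, 24 h of drug plus 18 h after the label; sigmoid fit per isolate.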

[2] = compound: T2, C[C@H]1[C@H](OC(=O)CCC(=O)O)O[C@@H]2O[C@@]3(C)CC[C@H]4[C@H](C)CC[C@@H]1[C@@]24OO3 [artesunate]
Description: as §1

[3] = compound: T3, CCN(CC)CCCC(C)Nc1ccnc2cc(Cl)ccc12 [chloroquine]
Description: as §1

[4] = compound: T1, mefloquine; assay: slope of the dose-response curve (dimensionless); higher = steeper concentration-effect curve
Description: as §1

[5] = compound: T2, artesunate; assay: as above
Description: as §1

[6] = compound: T3, chloroquine; assay: as above
Description: as §1

Test System	EC50 of parasite growth [1]	EC50 of parasite growth [2]	EC50 of parasite growth [3]	slope [4]	slope [5]	slope [6]
Plasmodium falciparum isolate 188 (pfmdr1 allele: 86N, 1042N, pfmdr1 copies: 1)	0.00625 µg/mL	0.000692 µg/mL	0.0458 µg/mL	2.06	2.64	4.34
Plasmodium falciparum isolate 209 (pfmdr1 allele: 86N, 1042N, pfmdr1 copies: 4)	0.208 µg/mL	0.00671 µg/mL	0.244 µg/mL	4.76	10	3.1
Plasmodium falciparum isolate 233 (pfmdr1 allele: 86N, 1042N, pfmdr1 copies: 3)	0.113 µg/mL	0.00173 µg/mL	0.0859 µg/mL	9.89	4.27	4.26
Plasmodium falciparum isolate 482 (pfmdr1 allele: 86N, 1042N, pfmdr1 copies: 3)	0.198 µg/mL	0.00375 µg/mL	0.247 µg/mL	5.02	6.03	2.75
Plasmodium falciparum isolate 80 (pfmdr1 allele: 1042D, pfmdr1 copies: 1)	0.0283 µg/mL	0.00422 µg/mL	0.229 µg/mL	4.4	7.24	3.62
Plasmodium falciparum isolate 377 (pfmdr1 allele: 86N, 1042N, pfmdr1 copies: 1)	0.0572 µg/mL	0.000844 µg/mL	0.35 µg/mL	5.21	10	2.45
Plasmodium falciparum isolate 200 (pfmdr1 allele: 86N, 1042N, pfmdr1 copies: 3)	0.0418 µg/mL	0.00044 µg/mL	0.307 µg/mL	2.02	5.94	4.04
Plasmodium falciparum isolate 46 (pfmdr1 allele: 86N, 1042N, pfmdr1 copies: 2)	0.0377 µg/mL	0.00275 µg/mL	0.417 µg/mL	3.48	6.07	5.81
Plasmodium falciparum isolate 122 (pfmdr1 allele: 86N, 1042N, pfmdr1 copies: 3)	0.12 µg/mL	0.0153 µg/mL	0.196 µg/mL	3.02	3.51	4.58
Plasmodium falciparum isolate 96 (pfmdr1 allele: 86N, 1042N, pfmdr1 copies: 2)	0.065 µg/mL	0.00227 µg/mL	0.135 µg/mL	2.39	4.51	2.44
Plasmodium falciparum isolate 292 (pfmdr1 allele: 86N, 1042N, pfmdr1 copies: 1)	0.00822 µg/mL	0.000554 µg/mL	0.368 µg/mL	0.934	3.39	1.54
Plasmodium falciparum isolate 281 (pfmdr1 allele: 86N, 1042N, pfmdr1 copies: 3)	0.0817 µg/mL	0.00258 µg/mL	0.106 µg/mL	1.51	6.45	1.68
Plasmodium falciparum isolate 311 (pfmdr1 allele: 86N, 1042N, pfmdr1 copies: 3)	0.143 µg/mL	0.0027 µg/mL	0.201 µg/mL	3.66	5.95	4.87
Plasmodium falciparum isolate 391 (pfmdr1 allele: 86N, 1042N, pfmdr1 copies: 3)	0.0382 µg/mL	0.00225 µg/mL	0.311 µg/mL	1.86	4.7	2.7
Plasmodium falciparum isolate 132 (pfmdr1 allele: 86N, 1042N, pfmdr1 copies: 1)	0.00599 µg/mL	0.00145 µg/mL	0.0674 µg/mL	2.88	4.03	4.72
Plasmodium falciparum isolate 420 (pfmdr1 allele: 86N, 1042N, pfmdr1 copies: 3)	0.0263 µg/mL	0.000839 µg/mL	0.295 µg/mL	4.13	10	4.56
Plasmodium falciparum isolate 357 (pfmdr1 allele: 86N, 1042N, pfmdr1 copies: 1)	0.00867 µg/mL	0.00203 µg/mL	0.142 µg/mL	2.87	4.4	2.5
Plasmodium falciparum isolate 326 (pfmdr1 allele: 86N, 1042N, pfmdr1 copies: 2)	0.0716 µg/mL	0.00174 µg/mL	0.0878 µg/mL	4.16	9.99	1.75
Plasmodium falciparum isolate 95 (pfmdr1 allele: 86N, 1042N, pfmdr1 copies: 2)	0.0248 µg/mL	0.000968 µg/mL	0.227 µg/mL	1.84	2.49	3.76
Plasmodium falciparum isolate 432 (pfmdr1 allele: 86Y, pfmdr1 copies: 1)	0.0237 µg/mL	0.000833 µg/mL	0.318 µg/mL	2.71	7.6	4.33
Plasmodium falciparum isolate 325 (pfmdr1 allele: 1042D, pfmdr1 copies: 1)	0.0676 µg/mL	0.00279 µg/mL	0.515 µg/mL	4.62	6.56	2.53
Plasmodium falciparum isolate 246 (pfmdr1 allele: 1042D, pfmdr1 copies: 1)	0.0344 µg/mL	0.00276 µg/mL	0.664 µg/mL	4.17	3.47	3.11
Plasmodium falciparum isolate 447 (pfmdr1 allele: 86N, 1042N, pfmdr1 copies: 2)	0.107 µg/mL	0.0144 µg/mL	0.303 µg/mL	4.81	4.44	4.81
Plasmodium falciparum isolate 242 (pfmdr1 allele: 86N, 1042N, pfmdr1 copies: 1)	0.0481 µg/mL	0.00356 µg/mL	0.482 µg/mL	3.35	3.18	4.94

Test System	EC50 of parasite growth [1]	EC50 of parasite growth [2]	EC50 of parasite growth [3]	slope [4]	slope [5]	slope [6]
Plasmodium falciparum isolate 271 (pfmdr1 allele: 86N, 1042N, pfmdr1 copies: 3)	0.0129 µg/mL	0.00282 µg/mL	0.0482 µg/mL	1.68	2.57	4.05
Plasmodium falciparum isolate 459 (pfmdr1 allele: 86N, 1042N, pfmdr1 copies: 3)	0.0863 µg/mL	0.00177 µg/mL	0.132 µg/mL	4.17	10	6.63
Plasmodium falciparum isolate 442 (pfmdr1 allele: 86N, 1042N, pfmdr1 copies: 1)	0.0244 µg/mL	0.00138 µg/mL	0.0764 µg/mL	3.39	2.16	2.94
Plasmodium falciparum isolate 295 (pfmdr1 allele: 86Y, pfmdr1 copies: 1)	0.00648 µg/mL	0.00149 µg/mL	0.209 µg/mL	2.51	3.71	7.14
Plasmodium falciparum isolate 74 (pfmdr1 allele: 86N, 1042N, pfmdr1 copies: 1)	0.0557 µg/mL	0.00161 µg/mL	0.17 µg/mL	4.46	2.86	9.99
Plasmodium falciparum isolate 57 (pfmdr1 allele: 86N, 1042N, pfmdr1 copies: 3)	0.0641 µg/mL	0.00371 µg/mL	0.0622 µg/mL	5.24	6.13	3.49
Plasmodium falciparum isolate 236 (pfmdr1 allele: 86N, 1042N, pfmdr1 copies: 1)	0.0395 µg/mL	0.00106 µg/mL	0.306 µg/mL	2.59	4.04	3.32
Plasmodium falciparum isolate 477 (pfmdr1 allele: 86N, 1042N, pfmdr1 copies: 1)	0.00776 µg/mL	0.00032 µg/mL	0.202 µg/mL	1.04	2.63	3.17
Plasmodium falciparum isolate 308 (pfmdr1 allele: 86N, 1042N, pfmdr1 copies: 2)	0.0413 µg/mL	0.00161 µg/mL	0.1 µg/mL	1.78	8	3.12
Plasmodium falciparum isolate 20 (pfmdr1 allele: 86N, 1042N, pfmdr1 copies: 1)	0.0795 µg/mL	0.0137 µg/mL	0.397 µg/mL	5.62	4.36	8.91
Plasmodium falciparum isolate 403 (pfmdr1 allele: 86N, 1042N, pfmdr1 copies: 2)	0.0141 µg/mL	0.00167 µg/mL	0.0398 µg/mL	3.85	2.67	4.29
Plasmodium falciparum isolate 186 (pfmdr1 allele: 86N, 1042N, pfmdr1 copies: 1)	0.0589 µg/mL	0.00201 µg/mL	0.0905 µg/mL	1.54	5.32	3.1
Plasmodium falciparum isolate 67 (pfmdr1 allele: 86N, 1042N, pfmdr1 copies: 4)	0.126 µg/mL	0.00107 µg/mL	0.357 µg/mL	3.03	6.62	2.3
Plasmodium falciparum isolate 50 (pfmdr1 allele: 86N, 1042N, pfmdr1 copies: 2)	0.0889 µg/mL	0.00267 µg/mL	0.0885 µg/mL	2.4	4.19	3.72
Plasmodium falciparum isolate 148 (pfmdr1 allele: 86N, 1042N, pfmdr1 copies: 3)	0.216 µg/mL	0.0115 µg/mL	0.157 µg/mL	10	7.54	5.47
Plasmodium falciparum isolate 301 (pfmdr1 allele: 86N, 1042N, pfmdr1 copies: 3)	0.116 µg/mL	0.00212 µg/mL	0.115 µg/mL	9.95	9.66	4.55
Plasmodium falciparum isolate 385 (pfmdr1 allele: 86N, 1042N, pfmdr1 copies: 1)	0.0999 µg/mL	0.00334 µg/mL	0.448 µg/mL	2.02	5.57	5.23
Plasmodium falciparum isolate 262 (pfmdr1 allele: 86N, 1042N, pfmdr1 copies: 3)	0.103 µg/mL	0.00309 µg/mL	0.128 µg/mL	2.72	5.69	4.23
Plasmodium falciparum isolate 270 (pfmdr1 allele: 86N, 1042N, pfmdr1 copies: 2)	0.145 µg/mL	0.00101 µg/mL	0.124 µg/mL	3.23	10	1.81
Plasmodium falciparum isolate 70 (pfmdr1 allele: 86N, 1042N, pfmdr1 copies: 2)	0.074 µg/mL	0.00094 µg/mL	0.0914 µg/mL	4.13	9.7	3.39
Plasmodium falciparum isolate 115 (pfmdr1 allele: 86N, 1042N, pfmdr1 copies: 1)	0.0145 µg/mL	0.000459 µg/mL	0.375 µg/mL	1.71	2.77	3.55
Plasmodium falciparum isolate 227 (pfmdr1 allele: 86Y, pfmdr1 copies: 1)	0.0138 µg/mL	0.000415 µg/mL	0.164 µg/mL	1.72	3.68	2.93
Plasmodium falciparum isolate 69 (pfmdr1 allele: 86N, 1042N, pfmdr1 copies: 1)	0.0101 µg/mL	0.00162 µg/mL	0.0531 µg/mL	1.44	4.38	2.52
Plasmodium falciparum isolate 37 (pfmdr1 allele: 86N, 1042N, pfmdr1 copies: 3)	0.0639 µg/mL	0.00294 µg/mL	0.218 µg/mL	6.33	8.56	4.43

Reference: the supplement of paper PMC3722116
